# The supplement of paper PMC8728848
# Some of the results follow.
# B1: ZG-16 (Homo sapiens), O60844 (protein)
# chain: IQARSSSYSGEYGSGGGKRFSHSGNQLDGPITALRVRVNTYYIVGLQVRYGKVWSDYVGGRNGDLEEIFLHPGESVIQVSGKYKWYLKKLVFVTDKGRYLSFGKDSGTSFNAVPLHPNTVLRFISGRSGSLIDAIGLHWDVYPTSCSRCSRGSDDDDKAEPRGPTIKPCPPCKCPAPNLLGGPSVFIFPPKIKDVLMISLSPIVTCVVVDVSEDDPDVQISWFVNNVEVHTAQTQTHREDYNSTLRVVSALPIQHQDWMSGKEFKCKVNNKDLPAPIERTISKPKGSVRAPQVYVLPPPEEEMTKKQVTLTCMVTDFMPEDIYVEWTNNGKTELNYKNTEPVLDSDGSYFMYSKLRVEKKNWVERNSYSCSVVHEGLHNHHTTKSFSRTPGKRTYHHHHHHARKLTR
# Columns and labels:
# Assay in all cases: glycan array binding signal (z-score within array); higher = stronger binding
# Conditions in all cases: glycan notation: IUPAC condensed, linker removed
# [1] = biological target: Fuc(a1-3)[Gal3S(b1-4)]GlcNAc
# Outline: (§1)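 From the Consortium for Functional Glycomics database, 3228 arrays were curated, keeping only those whose protein sequence was available. Binding is given as a within-array Z-score averaged across arrays sharing a protein sequence and across linkers. Negative Z-scores can be read as non-binding.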
# [2] = biological target: Fuc(a1-3)[Gal3S(b1-4)]GlcNAc6S
# Outline: as §1
# [3] = biological target: Fuc(a1-3)[GalNAc(b1-4)]GlcNAc
# Outline: as §1
# [4] = biological target: Fuc(a1-4)GlcNAc
# Outline: as §1
# [5] = biological target: Fuc(b1-3)GlcNAc
# Outline: as §1
# [6] = biological target: Gal(a1-2)Gal
# Outline: as §1
# [7] = biological target: Gal(a1-3)Gal
# Outline: as §1
# [8] = biological target: Gal(a1-3)Gal(b1-3)GlcNAc
# Outline: as §1
# [9] = biological target: Gal(a1-3)Gal(b1-3)GlcNAc(b1-2)Man(a1-3)[Gal(a1-3)Gal(b1-3)GlcNAc(b1-2)Man(a1-6)]Man(b1-4)GlcNAc(b1-4)GlcNAc
# Outline: as §1
# [10] = biological target: Gal(a1-3)Gal(b1-3)[Fuc(a1-4)]GlcNAc(b1-2)Man(a1-3)[Gal(a1-3)Gal(b1-3)[Fuc(a1-4)]GlcNAc(b1-2)Man(a1-6)]Man(b1-4)GlcNAc(b1-4)GlcNAc
# Outline: as §1
# [11] = biological target: Gal(a1-3)Gal(b1-4)Glc
# Outline: as §1
# [12] = biological target: Gal(a1-3)Gal(b1-4)GlcNAc
# Outline: as §1
# [13] = biological target: Gal(a1-3)Gal(b1-4)GlcNAc(b1-3)GalNAc
# Outline: as §1
# [14] = biological target: Gal(a1-3)Gal(b1-4)[Fuc(a1-3)]GlcNAc
# Outline: as §1
# [15] = biological target: Gal(a1-3)Gal(b1-4)[Fuc(a1-3)]GlcNAc(b1-2)Man(a1-3)[Gal(a1-3)Gal(b1-4)[Fuc(a1-3)]GlcNAc(b1-2)Man(a1-6)]Man(b1-4)GlcNAc(b1-4)GlcNAc
# Outline: as §1
# [16] = biological target: Gal(a1-3)GalNAc
# Outline: as §1
# [17] = biological target: Gal(a1-3)[Gal(a1-4)]Gal(b1-4)GlcNAc
# Outline: as §1
# [18] = biological target: Gal(a1-4)Gal(b1-3)GlcNAc(b1-2)Man(a1-3)[Gal(a1-4)Gal(b1-3)GlcNAc(b1-2)Man(a1-6)]Man(b1-4)GlcNAc(b1-4)GlcNAc
# Outline: as §1
# [19] = biological target: Gal(a1-4)Gal(b1-4)Glc
# Outline: as §1
# [20] = biological target: Gal(a1-4)Gal(b1-4)GlcNAc
# Outline: as §1
# [21] = biological target: Gal(a1-4)Gal(b1-4)GlcNAc(b1-2)Man(a1-3)[Gal(a1-4)Gal(b1-4)GlcNAc(b1-2)Man(a1-6)]Man(b1-4)GlcNAc(b1-4)GlcNAc
# Outline: as §1
# [22] = biological target: Gal(a1-4)Gal(b1-4)GlcNAc(b1-3)Gal(b1-4)Glc
# Outline: as §1
# [23] = biological target: Gal(a1-4)GlcNAc
# Outline: as §1
# [24] = biological target: Gal(a1-6)Glc
# Outline: as §1
# [25] = biological target: Gal(b1-2)Gal
# Outline: as §1
# [26] = biological target: Gal(b1-3)Gal
# Outline: as §1
# [27] = biological target: Gal(b1-3)Gal(b1-4)GlcNAc
# Outline: as §1
# [28] = biological target: Gal(b1-3)Gal(b1-4)GlcNAc(b1-2)Man(a1-3)[Gal(b1-3)Gal(b1-4)GlcNAc(b1-2)Man(a1-6)]Man(b1-4)GlcNAc(b1-4)GlcNAc
# Outline: as §1
# [29] = biological target: Gal(b1-3)GalNAc
# Outline: as §1
# [30] = biological target: Gal(b1-3)GalNAc(a1-3)[Fuc(a1-2)]Gal(b1-4)Glc
# Outline: as §1
# [31] = biological target: Gal(b1-3)GalNAc(a1-3)[Fuc(a1-2)]Gal(b1-4)GlcNAc
# Outline: as §1
# [32] = biological target: Gal(b1-3)GalNAc(b1-3)Gal(a1-4)Gal(b1-4)Glc
# Outline: as §1
# [33] = biological target: Gal(b1-3)GalNAc(b1-4)Gal(b1-4)Glc
# Outline: as §1
# [34] = biological target: Gal(b1-3)GalNAc(b1-4)[Neu5Ac(a2-3)]Gal(b1-4)Glc
# Outline: as §1
# [35] = biological target: Gal(b1-3)GlcNAc
# Outline: as §1
# [36] = biological target: Gal(b1-3)GlcNAc(a1-6)Gal(b1-4)GlcNAc
# Outline: as §1
# [37] = biological target: Gal(b1-3)GlcNAc(b1-2)Man(a1-3)[Gal(b1-3)GlcNAc(b1-2)Man(a1-6)]Man(b1-4)GlcNAc(b1-4)GlcNAc
# Outline: as §1
binder,measurement,setting,value
B1,glycan array binding signal (z-score),[1],-0.148
same,glycan array binding signal (z-score),[2],-0.158
same,glycan array binding signal (z-score),[3],-0.158
same,glycan array binding signal (z-score),[4],0.116
same,glycan array binding signal (z-score),[5],-0.162
same,glycan array binding signal (z-score),[6],-0.229
same,glycan array binding signal (z-score),[7],-0.229
same,glycan array binding signal (z-score),[8],-0.051
same,glycan array binding signal (z-score),[9],-0.212
same,glycan array binding signal (z-score),[10],-0.184
same,glycan array binding signal (z-score),[11],-0.246
same,glycan array binding signal (z-score),[12],-0.227
same,glycan array binding signal (z-score),[13],-0.189
same,glycan array binding signal (z-score),[14],-0.216
same,glycan array binding signal (z-score),[15],-0.158
same,glycan array binding signal (z-score),[16],-0.141
same,glycan array binding signal (z-score),[17],-0.123
same,glycan array binding signal (z-score),[18],-0.155
same,glycan array binding signal (z-score),[19],-0.135
same,glycan array binding signal (z-score),[20],-0.196
same,glycan array binding signal (z-score),[21],-0.205
same,glycan array binding signal (z-score),[22],-0.224
same,glycan array binding signal (z-score),[23],-0.193
same,glycan array binding signal (z-score),[24],-0.107
same,glycan array binding signal (z-score),[25],-0.2
same,glycan array binding signal (z-score),[26],-0.222
same,glycan array binding signal (z-score),[27],-0.231
same,glycan array binding signal (z-score),[28],-0.2
same,glycan array binding signal (z-score),[29],-0.173
same,glycan array binding signal (z-score),[30],-0.193
same,glycan array binding signal (z-score),[31],-0.202
same,glycan array binding signal (z-score),[32],-0.161
same,glycan array binding signal (z-score),[33],-0.193
same,glycan array binding signal (z-score),[34],-0.198
same,glycan array binding signal (z-score),[35],0.526
same,glycan array binding signal (z-score),[36],-0.161
same,glycan array binding signal (z-score),[37],-0.189
